According to PMC12136788:
The other results are listed elsewhere or left out.

T1: UNK ZnF1-3 (human, UniProt Q9C0B0 31-174)
T1 sequence: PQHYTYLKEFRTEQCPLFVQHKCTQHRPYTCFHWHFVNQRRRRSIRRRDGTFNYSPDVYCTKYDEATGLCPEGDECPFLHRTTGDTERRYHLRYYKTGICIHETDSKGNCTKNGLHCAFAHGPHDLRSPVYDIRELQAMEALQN

B1: chr7:106494041:106494042:-_ENSMUSG00000070436_ENSMUST00000094154|mus_mus|FALSE|FALSE (ssRNA)
RNA: GGGAGUUCUACAGUCCGACGAUCUUCUCGUUUUGAAAGCAACAAAGGCUCAUAUUUCCCUUCCCCCCAUCUUUGAAAAAACUAAAAAAGGGAGAAAAACAAAAGUUCAUGACUGUGAUGCCCAACAUAACAAUUCUAGGGCAGCAACAGAGGAUUGAGCAUCA
B2: chr8:104439394:104439395:+_ENSG00000164934_ENST00000297579|hu_mus|FALSE|FALSE (ssRNA)
RNA: GGGAGUUCUACAGUCCGACGAUCGCUGUCAAAUCCCCAGUUCAUUGAGCACACAGGGCUGGUUCUUUGUUCAUCCCAAAUGUCUACUUGCUGUCCACAAGUGGCAAAGACUGGGUCUUUCCAGUGAUGAUCAAUGCCAGUAUACAACAGAGGAUUGAGCAUCA
B3: chr5:154346341:154346342:+_ENSG00000082515_ENST00000439747|hu_hu|FALSE|FALSE (ssRNA)
RNA: GGGAGUUCUACAGUCCGACGAUCAACUGCCGUCUUUGGUGGCUCAGGUGGAGGUGGGGGCCCUUCCACCAACUUCACAAAAUAAUGGCAAUAAACCUUCUCCAUGAUCCCAAAGCGACCUCUGCCAUGGUAGCGGAUGCGUUUCAACAGAGGAUUGAGCAUCA
B4: chr1:71529667:71529668:-_ENSG00000132485_ENST00000254821|hu_hu|motif|central (ssRNA)
RNA: GGGAGUUCUACAGUCCGACGAUCUUGUCACUGGAAAUACUGUUAAGAGAAACCUUUUUAUUUUUUAAACCAGAAAACAAACGGAAGCUCAUGUGACCAGAUUUUAAUUUUGAGAAAUAAACUCCAAAAGCAUUUUAAGCCAUACAACAGAGGAUUGAGCAUCA
B5: chr17:63010574:63010575:-_ENSG00000120063_ENST00000439174|hu_hu|FALSE|FALSE (ssRNA)
RNA: GGGAGUUCUACAGUCCGACGAUCGAAACAUUCCACCAGGAAUUUUUGGACGUCUCUUAAGCAGUGGGGAUCCCCUUCAAAUUCUAGGAAAUAGUCUUUGAUGCUCACAAUUUGCACCUUCUCCUCAAGCAAGUCUGUCUUGUUCAACAGAGGAUUGAGCAUCA
B6: chr6:133136146:133136147:+_ENSG00000112306_ENST00000230050|hu_mus|FALSE|FALSE (ssRNA)
RNA: GGGAGUUCUACAGUCCGACGAUCACACAGAUGGGCUUGGCGCUUGUCUAAGGCUUUGGCAGCUUCGCGUAUGCCACGUGCUAGGCCAUCGUGGAUGAGGGCGGUCUUCAGCACCUCUUGUAGAGCAGUGUUGACGUCCAUUACCAACAGAGGAUUGAGCAUCA
B7: chr4:148551591:148551592:-_ENSMUSG00000063077_ENSMUST00000060537|mus_mus|FALSE|FALSE (ssRNA)
RNA: GGGAGUUCUACAGUCCGACGAUCACCUUACAAAAUUAAAUAUCCCUGUAAAUUAGACAAGAAGCAGCAGGUAACAAAGUCUAUGCUUUGAAAUAUGUGCCAGGAAAAAUCAUGUUUUAGACCCCAAACACCUUUCACAACCAUCAACAGAGGAUUGAGCAUCA
B8: chr12:110819636:110819637:-_ENSG00000196510_ENST00000455511|hu_hu|motif|central (ssRNA)
RNA: GGGAGUUCUACAGUCCGACGAUCGAGCCGUAUGGCCUCCCGAAAGUGGAUUAUUGCUUCUUGGACUCUGCCCAUGUUCCGGAGUGCUGCUCCCUUAAGUAGCAGAGCUUGAACACUAUUACUGUUCAGCUGAAUGGCCUUGGCCAACAGAGGAUUGAGCAUCA
B9: 83145050_83145604_2900_CDS_ENSMUSG00000031865_ENSMUST00000113913|mouse|control|control (ssRNA)
RNA: GGGAGUUCUACAGUCCGACGAUCAGCGCUGUCCAACUUCUUCUCCAGGAGGCUGAGCCGCACGUUGGCCUCACUCAGCUCCUCUCCCUUAAUCUUGAGUGACUUCUUUAACUCCUUGAUAACUGUCUCUCGAUCCUCAAGCUUCAACAGAGGAUUGAGCAUCA
B10: chr11:50196439:50196440:+_ENSMUSG00000007850_ENSMUST00000069304|mus_hu|FALSE|FALSE (ssRNA)
RNA: GGGAGUUCUACAGUCCGACGAUCCCCGUAUCUGUGAUCAGACAUUCCUGAAAAACAGUAAUUGAGGUCUCUUCCAAAUCUAUCUGACCCAAAUCCAUAGCCAUCAUUAUAGCCAUUGUAAUCAUCAUAGCCUCCAUAGCCUCCCAACAGAGGAUUGAGCAUCA
B11: chr1:244855233:244855234:+_ENSG00000121644_ENST00000302550|hu_mus|hu_hu_hu_mus_True|38_58 (ssRNA)
RNA: GGGAGUUCUACAGUCCGACGAUCCAUCAGAUGGUAGGCGUUGCCCUUAUACUCUUUCCCCAGUUCUUCUACAAUUUUUUCUAUAUCAUCUUCUAGAAAGUCCGUGCUUCCUAGAACAACAGCUUCUUUAAAUUUAAAUGUUUCCAACAGAGGAUUGAGCAUCA
B12: chr11:12883819:12883820:+_ENSG00000187079_ENST00000361905|hu_hu|motif|central (ssRNA)
RNA: GGGAGUUCUACAGUCCGACGAUCAAUGUGACUAGACACCUGUUUUCUGGUCCUCGUCUUGCCUGUCCUGAGUUUGAUGUAUCUGGCGGUCAAUUCAUUCCUACCAUACAUUUUGCCUUCGUCUGAUAAGAUGAUUUUCCUCCUCAACAGAGGAUUGAGCAUCA
B13: chr4:138453181:138453182:-_ENSG00000189184_ENST00000344876|hu_mus|FALSE|FALSE (ssRNA)
RNA: GGGAGUUCUACAGUCCGACGAUCGCUCCUCAUAAAUCCUGUAUUUCAGAUUCUUAGCCAGGACAUCGUGGCUGAAAAACGCCAUCAGAAGUGCAAGUGCAAAUCUAAAGUGCAUUUUAGUAUUCAUUUGGUGCAUUGGUCAGUCAACAGAGGAUUGAGCAUCA
B14: chr17:49039638:49039639:-_ENSG00000008294_ENST00000262013|hu_hu|FALSE|FALSE (ssRNA)
RNA: GGGAGUUCUACAGUCCGACGAUCCAUUCUGAACCCCAGGGAUUCCAUAAUAGAAAUAAAUACUGAAAUAACUACAUUGCUAAAUGAGCUCUUUGCUCAUAGAAAUGAAGCUCAGCCUCUAAGAGACAGCAAGUGGGACAUUCUCAACAGAGGAUUGAGCAUCA
B15: chr1:163117127:163117128:-_ENSG00000143248_ENST00000313961|hu_mus|hu_hu_hu_mus_False|48_68 (ssRNA)
RNA: GGGAGUUCUACAGUCCGACGAUCUGCUACAAAGGAUGUAACUCAACUCACAGGGCAACUUUUGGAAGCCUGGCUAAAUGACUACUUGAUUAACUCCUUAUAAAAUUCAGAGCGCACAAAGCGGGGCAGAGAAUCCUUCUCCAUCAACAGAGGAUUGAGCAUCA
B16: chr1:185277986:185277987:-_ENSG00000116679_ENST00000392007|hu_hu|FALSE|FALSE (ssRNA)
RNA: GGGAGUUCUACAGUCCGACGAUCCCUGCUUUACUCGAUCCAUCUUCAGCUUUUUUGCUGCAGAAUAAACAUCUUUUACCAAUUCCUUAUCUGCUUUCAACUGAGCAGUGUAGGCAUAAUUCAACAAGACUUCAACAGCUUCUGCAACAGAGGAUUGAGCAUCA
B17: chr1:163122426:163122427:-_ENSG00000143248_ENST00000313961|hu_mus|FALSE|FALSE (ssRNA)
RNA: GGGAGUUCUACAGUCCGACGAUCUUCAUAAAUUUGCUUUGCCUUCUCCGCCAUUUUGAUGGGGGACUUGAUCUUCUUGUAAUUCUCACAGGCAACCCAGAACUCAAGGUUUUCCUCACUGAAUUCAGACUUCAGGAAACUUUUCAACAGAGGAUUGAGCAUCA
B18: chr3:176767854:176767855:-_ENSG00000177565_ENST00000430069|hu_hu|hu_hu_hu_mus_False|18_68 (ssRNA)
RNA: GGGAGUUCUACAGUCCGACGAUCGACAUCCUUGUUACUGGGCACGUCCUGCCCUCCUUCCCGUAUGCAAUGUCUAAGCACGAGCUGCGUAGGGCCACUCGUGCUGUUCUCACUGAGAUUCCAUAUUCUUGCCGUGGAGUCUCCCAACAGAGGAUUGAGCAUCA
B19: 6862929_6863049_1259_3pUTR_ENSG00000170871_ENST00000425103|human|control|control (ssRNA)
RNA: GGGAGUUCUACAGUCCGACGAUCUAACAUACUUCAUGGAUGCUUUUAAUUCUCCCUGAUUCCCACUGGAACUUGAGCCUGCUUCACUGGAGCCAGAAGACCACGAGCGAGGGCGAAUCUUUCCUUCAGGUUUAUGUCGGAUUUCAACAGAGGAUUGAGCAUCA
B20: chr14:59836542:59836543:+_ENSMUSG00000035469_ENSMUST00000043227|mus_mus|motif|central (ssRNA)
RNA: GGGAGUUCUACAGUCCGACGAUCCCAAGCAAAUAACUCUCCAUCAGCUGCUAAAGCCAUCGAAUGAUGUGAACCACAAGCGGCUUCAAUCACCUGCUUGAUCAAGAGAUUAGUACAGACUUGGACAGGAGCAAUGCCUUGGUUCAACAGAGGAUUGAGCAUCA
B21: chr10:33190432:33190433:-_ENSG00000150093_ENST00000302278|hu_mus|hu_hu_hu_mus_True|8_88 (ssRNA)
RNA: GGGAGUUCUACAGUCCGACGAUCUACAUUUUCCAAACCUGCAUGUGAGUAAAACCAUGGCCACAGAGCCCCAAAACUACCCUACUGUGACUAAGAUGCUGCUGCUGUGAGCUUGGUGUUGCAAAAUUUUGCACGGGAGGAUUCCAACAGAGGAUUGAGCAUCA
B22: chr17:40359653:40359654:-_ENSG00000173757_ENST00000293328|hu_hu|FALSE|FALSE (ssRNA)
RNA: GGGAGUUCUACAGUCCGACGAUCUGGUGUGUAGUAUUUGGAGUAUACUUCAUCUUUUGGCCGAUCAGGAAACACGUAGAUAAGGUAAUUCAAGUCUCCCAAGCGGUCGGCUAGGGACCGAAUGGAGAAGUCUCUGGUGGUAAACAACAGAGGAUUGAGCAUCA

Molecular target: T1, UNK ZnF1-3
Test: nsRBNS (natural sequence RNA bind-n-seq); RBNS binding buffer (assumed for nsRBNS): 25 mM Tris pH 7.5, 150 mM KCl, 3 mM MgCl2, 0.01% Triton X-100, 500 ug/ml BSA, 20 U/ml SUPERase-In, 4 C; UNK is unkempt and MSI1 is Musashi-1; names of the RNAs are library labels; protein concentration not given here; high values mean tight binding

Binder	binding signal [enrichment R]
B1	2.75
B2	0.909
B3	0.79
B4	1.48
B5	0.765
B6	0.625
B7	1.68
B8	0.898
B9	0.8
B10	1.04
B11	1.48
B12	0.306
B13	1.03
B14	1.46
B15	1.12
B16	1.21
B17	0.773
B18	0.383
B19	0.608
B20	0.913
B21	1.16
B22	1.13
